Test results published in the supplement of paper PMC10126150.
Values marked as one replicate rest on one cluster of the flow cell; about a third of the high ones do not repeat.

Tested on: ATP
Assay: switch fluorescence ratio, 500 uM ATP over buffer (Cy3 cluster intensity, sum of 5 cycles each) (fold (ratio)); higher = stronger signal-on switching upon ATP binding; sequences stand for … in TCGTCGGCAGCGTCAGATGTGTATAAGAGACAGTTTTTTTTTTTTTTTTTTTTTTTTT…TC
Conditions: aptamer strand: ATP DNA aptamer (quencher-CACCTGGGGGAGTATTGCGGAGGAAGG + anchor), 100 nM annealed; ATP concentration: 500 uM; one replicate
How it was run: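 Between each of five buffer/ATP cycles, the flow-cell was stripped with NaOH and re-annealed. Each cycle imaged Cy3-labelled switching-strand clusters, annealed to 100 nM quencher-labelled ATP aptamer on a modified Illumina MiSeq flow-cell, first in selection buffer and then after 15 min with 500 uM ATP at 22 °C. The fluorescence ratio is summed target-cycle over summed buffer-cycle Cy3 intensity per cluster, averaged per switch-domain sequence, with clusters outside 100-1000 RFU excluded.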
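Also: ATP exposure 15 min at 22 °C before imaging.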

Sequence	switch fluorescence ratio
CATACGGTAT	1.21
GATAGGAATT	0.999
TATGGTAAA	0.957
ATCTCATTTC	1.87
TTGAGAAGGA	0.976
GGTTTGGACA	0.972
GGCACTCCAC	1.12
TTGAAGTGAG	0.979
TCAACCGGCA	1.12
CACGCATTTG	1.11
AACTACTACT	1.13
GAGTACTTT	1
TATTGTGCCG	0.972
TGCCGGCTGT	0.977
TCCCAGTAAG	1.05
TGGAATGGTC	0.929
ACATCTCAGC	1.01
GAACTGAGCG	0.994
GGGTGCTGAA	0.979
AGGATGAAGT	0.951
AAGTTGTTAC	1.03
CGCACTTAGA	1.13
TGTCCCGGTT	1
TCCTCGAGAG	1.12
CCGCGTAGGT	1.24
AGTTCGGGTG	1.04

Sequence	switch fluorescence ratio
TAGGTTGTA	0.988
AAAGAAACAA	0.975
TGCGAATCGG	0.991
AGACGGGGAA	0.981
GAAAGGCATT	1
GGATTAAAAA	1.01
TTCTAGTAGA	1
AGTCTCATTT	1.05
TAGTGACCAG	1.01
TGATTCAATT	0.973
ATGAGCATTG	1.03
TTTCTAGAGG	0.954
ATGGAGGGCT	0.988
AAGCGGTAGA	1.05
TTTAGCCGGC	0.994
TAAACTTCCT	1.39
CAGGAAATTA	1.01
AATGCTCCTT	1.05
TATGAATCGG	0.927
TTAGTTAAGA	0.982
GTGACGCTTG	1.01
TCAAATAGCA	1.01
TAGTTACTAA	1
CCTTCAGGCA	1.14
CACAACGGGG	1.01
GATGTGATCG	1.05

Sequence	switch fluorescence ratio
ATATCTAATC	0.966
GTTGAGGAGT	0.978
ATCAAATCTC	0.999
GACGAACCTA	1.32
AATACAGTAT	1.01
TCATGTAGGA	1
ATGCGGCAT	0.986
ATAAGGCTA	0.981
ATGTCGGAGA	1.01
TCGTGTCTTT	0.993
TTTGTGTCAG	1
ACACACGTTG	1.31
TAGGGCGAGA	0.977
TTAGGGCTGA	1
CCGCTTCGGG	1.01
CGTGACCTTG	1.01
TCTGTCTACC	0.983
TTGAGGTCCG	0.967
TACGCGTTCT	1.01
CATTTATTTA	1.03
CGAATATCCA	1.01
TTGCCCCCCA	0.981
CGCTTGTAGT	1.03
TCGTCATTAG	1.06
TTAACCGGTT	1.01
TATACCCAGG	2.98

Sequence	switch fluorescence ratio
ACTAGGTCTG	1
TTCTGTGAAA	1.01
ACATATATAC	1.23
AGCATCGATC	1.02
CGTGAGGCT	1.05
TATTCGGGA	1.02
TTGATACTTG	0.997
ACCGCTTTAT	1.49
CAGTCTGTTA	1.06
CTAACCACTC	1.07
GACCAGCGTG	1.03
GTGATTGTTG	0.994
CCGGTGGCGT	0.974
AGGACCAATA	1.06
GGTTAATACG	0.985
ATTTGTTCAC	1.02
GTTTTCATAA	1.03
GCCATATCGG	0.959
TCGGATTGCA	1.04
TGGTCGGGCG	1.08
AGCAAATGAC	2.79
AGTGCGAAAC	1.08
CTAGTTACTA	1.02
TCCCGATGGT	1.02
GCATGAGGGG	1.01
ACAAATCTAT	1.06

Sequence	switch fluorescence ratio
TTTCGCGCA	1.07
GGTTTGGTGA	1.05
CCCTGCACAA	3.22
GCCTTTGATT	0.964
CTAGCGCGAA	1.09
AAGTAGCCCC	1.05
CATTAGTAAC	0.999
CATTATAACC	0.981
CAATGACTCA	1.03
ATTGACCAGT	1.06
GCAGCAACTA	2.73
AGACAGAAAC	1.06
GTCCCAGATT	1.03
CCTCGAATTT	1.98
AAAGAAGTTT	0.983
TAGCTGATCA	0.988
TGACCCCAAG	0.978
ATTTGTAACA	0.977
CGACCGTAAT	5.04
TCCATTGGCT	0.991
GTCGAAGCAG	1.11
AAAAGGGGCC	0.918
GGATGGCAGC	0.988
TCCGGCCATG	1.18
TTTTGTAAAG	0.978
GATAGCATTG	1

Sequence	switch fluorescence ratio
TCGGTGATG	1.03
GATCCTCTCG	1.08
TATTCTGGA	1.06
ATTTGTTC	1.08
TAATATTCAT	0.968
GCAAACTAGT	1.02
CAACAGCCGT	0.987
TCAGCTTCCG	1.18
CCCAGAGTAG	1.1
TCCTCGGGA	2.15
AGTGCCAAC	1.02
TTGGAACG	0.976
ATACTAAGGG	1
GAGTAAGAGA	0.961
AAGATTGGT	0.925
GTTGGAATAG	1.11
GATCTAATGA	1.04
GAACAGCCAT	1.07
TTATATTACC	1.05
GTAGCGCCGT	0.989
TACTGACAT	1.21
CCTACTAGGC	1.18
AGAGTGGGCT	1.01
GTGTTTACCT	1.08
AGACTTCGCT	1.02
GCAGGGGTCC	1.05

Sequence	switch fluorescence ratio
TCCAGAGGGG	1.03
TTAAGGAAAT	0.988
CGTGATTCCC	1.1
CATGAATGCT	0.969
ATATCGGACA	1.04
ATGCCAGGAG	1.01
GGAGAAACGG	1.01
CGATTGTGAC	1.05
AATTAGAACG	0.979
CTAGCTCTGA	1.01
ATTTAGGTCT	0.968
CAGAAGACTC	0.997
ATTCCCAAGG	1.46
TAAAATGATC	0.961
CTGGTGTACG	0.994
GAAGATCATG	0.96
TTTTTCTGA	0.981
CATCAACCT	1.73
CCGTGTGAGA	1
CCAGTTAAAA	1.03
GGTTATCAAT	0.99
GCCGTGGAAA	1.03
AGGGTAGCCG	0.919
GATATTGCAT	1.02
TCTATGGGCG	1.08
ATACTACGTA	1.04

Sequence	switch fluorescence ratio
CATTCGGGAA	1.23
ACATAGGTAT	1
ACCGGGGCTT	1.11
CCGTCTAAAC	3.13
GGTGGGCCCG	1.5
TTGCCAGGCG	0.983
TTTTAGGGG	0.962
GGACCATTAA	0.979
GCGAGGCAGT	1.94
TTCAACGCAT	1.54
CTCTGCGGAG	1.2
ATAAGAGTGT	1.01
GTGGTACTAC	1.03
TATCATGCAT	1.44
AAAGACTCC	1.33
TTACGTTATT	1.18
ACGATTTTAT	0.983
ATTTTTTAAT	0.94
CCGGTTGTTT	0.964
